Experimental data taken from the supplement of paper PMC9334596.
“And” between values parts separate entries of the source, which are not always exact repeats. Equal values may be shown once. Whole data set: some 5,300 compounds, median “PER2::LUC luminescence relative to vehicle control” near 0.96, cut for the highest 2% near 1.3. The list shows a part of the results.

Test system: mPer2Luc MEF
Assay: PER2::LUC luminescence relative to vehicle control (fold of vehicle); higher = higher PER2::LUC reporter signal
Conditions: 10 µM
Summary of the method: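 Each value gives PER2::LUC luminescence as fold of vehicle control, measured with the ONE-Glo luciferase assay system in mouse embryonic fibroblasts carrying the mPer2Luc reporter. Cells grown in DMEM with 10% FBS at 37 °C and 5% CO2 were seeded at ~3000 per well in 384-well plates. Library compounds were added at 10 μM 48 h later, and readings were taken 24 h and 30 h after treatment.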

Structure (SMILES): COc1cc(N2CCOCC2)ccc1Nc1ncc(F)c(Nc2ccccc2NS(C)(=O)=O)n1
- PER2::LUC luminescence (time after treatment 24 h): 0.771
- PER2::LUC luminescence (time after treatment 30 h): 0.673

Structure (SMILES): N[C@@H](Cc1cc(I)c(Oc2ccc(O)c(I)c2)c(I)c1)C(=O)O
- PER2::LUC luminescence (time after treatment 24 h): 1.11 and 0.582
- PER2::LUC luminescence (time after treatment 30 h): 1.19 and 1.01

Structure (SMILES): CN1CCC(=C2c3ccccc3Sc3ccccc32)CC1
- PER2::LUC luminescence (time after treatment 24 h): 0.763
- PER2::LUC luminescence (time after treatment 30 h): 0.771

Structure (SMILES): COC1=CC(=O)C(C(=O)c2ccccc2)=CC1=O
- PER2::LUC luminescence (time after treatment 24 h): 1.03
- PER2::LUC luminescence (time after treatment 30 h): 1.08

Structure (SMILES): Cc1ccc(=O)n(-c2ccccc2)c1
- PER2::LUC luminescence (time after treatment 24 h): 0.986
- PER2::LUC luminescence (time after treatment 30 h): 1

Structure (SMILES): NCCCCCCCCCCNCCCN
- PER2::LUC luminescence (time after treatment 24 h): 0.962
- PER2::LUC luminescence (time after treatment 30 h): 0.892

Structure (SMILES): COc1ccccc1N1CCN(CCN(C(=O)c2ccc(F)cc2)c2ccccn2)CC1
- PER2::LUC luminescence (time after treatment 24 h): 0.998
- PER2::LUC luminescence (time after treatment 30 h): 1.09

Structure (SMILES): c1ccc(-c2ccccn2)nc1
- PER2::LUC luminescence (time after treatment 24 h): 1.08
- PER2::LUC luminescence (time after treatment 30 h): 0.883

Structure (SMILES): O=C(O)c1ccc2c(c1)nc(Nc1cccc(Cl)c1)c1ccncc12
- PER2::LUC luminescence (time after treatment 24 h): 0.795
- PER2::LUC luminescence (time after treatment 30 h): 1.39

Structure (SMILES): CC1(C)O[C@@H]2C[C@H]3[C@@H]4CCC5=CC(=O)C=C[C@]5(C)[C@H]4[C@@H](O)C[C@]3(C)[C@]2(C(=O)CO)O1
- PER2::LUC luminescence (time after treatment 24 h): 0.604
- PER2::LUC luminescence (time after treatment 30 h): 1.01

Structure (SMILES): C/C=C/C[C@@H](C)C(=O)[C@H]1C(=O)N[C@@H](C(C)C)C(=O)N(C)CC(=O)N(C)[C@@H](CC(C)C)C(=O)N[C@@H](C(C)C)C(=O)N(C)[C@@H](CC(C)C)C(=O)N[C@@H](C)C(=O)N[C@H](C)C(=O)N(C)[C@@H](CC(C)C)C(=O)N(C)[C@@H](CC(C)C)C(=O)N(C)[C@@H](C(C)C)C(=O)N1C
- PER2::LUC luminescence (time after treatment 24 h): 0.986
- PER2::LUC luminescence (time after treatment 30 h): 0.991

Structure (SMILES): C[C@H](N)C(=O)N[C@@]1(C(=O)O)C[C@@H](Sc2nnc[nH]2)[C@H]2[C@H](C(=O)O)[C@H]21
- PER2::LUC luminescence (time after treatment 24 h): 1.01
- PER2::LUC luminescence (time after treatment 30 h): 0.993

Structure (SMILES): COc1ccc(C=CC(=O)O)cc1OC
- PER2::LUC luminescence (time after treatment 24 h): 1.07
- PER2::LUC luminescence (time after treatment 30 h): 0.969

Structure (SMILES): NCCCCCNCC12CC3CC(CC(C3)C1)C2
- PER2::LUC luminescence (time after treatment 24 h): 0.956
- PER2::LUC luminescence (time after treatment 30 h): 0.918

Structure (SMILES): CCN(CC)CCOc1ccc2c(c1)C(=O)c1cc(OCCN(CC)CC)ccc1-2
- PER2::LUC luminescence (time after treatment 24 h): 0.704 and 0.553
- PER2::LUC luminescence (time after treatment 30 h): 0.781 and 0.595

Structure (SMILES): Oc1ccc(Cn2cc[nH]c2=S)cc1
- PER2::LUC luminescence (time after treatment 24 h): 0.892
- PER2::LUC luminescence (time after treatment 30 h): 0.875

Structure (SMILES): CCc1ccc2c(-c3cccc(Cl)c3)nc(=O)n(CC)c2n1
- PER2::LUC luminescence (time after treatment 24 h): 1.03
- PER2::LUC luminescence (time after treatment 30 h): 0.944

Structure (SMILES): O=C(CCCCCCC(=O)Nc1ccccc1)NO
- PER2::LUC luminescence (time after treatment 24 h): 0.271
- PER2::LUC luminescence (time after treatment 30 h): 0.329

Structure (SMILES): CC(C)ON([C@@H](C(=O)NO)C(C)C)S(=O)(=O)c1ccc(-c2ccccc2)cc1
- PER2::LUC luminescence (time after treatment 24 h): 1.04
- PER2::LUC luminescence (time after treatment 30 h): 0.961

Structure (SMILES): C[C@H](CCC(=O)NCCC[N+](C)(C)CCCS(=O)(=O)[O-])[C@H]1CC[C@H]2[C@@H]3[C@H](O)C[C@@H]4C[C@H](O)CC[C@]4(C)[C@H]3C[C@H](O)[C@]12C
- PER2::LUC luminescence (time after treatment 24 h): 1.06
- PER2::LUC luminescence (time after treatment 30 h): 0.883

Structure (SMILES): COc1ccc2c(=O)c(-c3ccc(O)cc3)coc2c1
- PER2::LUC luminescence (time after treatment 24 h): 1.39
- PER2::LUC luminescence (time after treatment 30 h): 1.62

Structure (SMILES): C[C@H](Oc1ccc(S(C)(=O)=O)cc1C(=O)N1CCN(c2ncc(C(F)(F)F)cc2F)CC1)C(F)(F)F
- PER2::LUC luminescence (time after treatment 24 h): 0.848
- PER2::LUC luminescence (time after treatment 30 h): 0.812

Structure (SMILES): NC[C@H]1O[C@H](O[C@H]2[C@H](O)[C@@H](O[C@H]3O[C@H](CO)[C@@H](O)[C@H](N)[C@H]3O)[C@H](N)C[C@@H]2N)[C@H](O)[C@@H](O)[C@@H]1O
- PER2::LUC luminescence (time after treatment 24 h): 0.835
- PER2::LUC luminescence (time after treatment 30 h): 0.97

Structure (SMILES): COC(=O)C1=C(C)NC(C)=C([N+](=O)[O-])C1c1ccccc1C(F)(F)F (racemic)
- PER2::LUC luminescence (time after treatment 24 h): 1.15
- PER2::LUC luminescence (time after treatment 30 h): 1.01

Structure (SMILES): O=C(/C=C/c1ccc(O)c(O)c1)c1ccc(O)cc1O
- PER2::LUC luminescence (time after treatment 24 h): 1.04
- PER2::LUC luminescence (time after treatment 30 h): 1.13

Structure (SMILES): CC[C@H]1OC(=O)C[C@@H](O)[C@H](C)[C@@H](O[C@@H]2O[C@H](C)[C@@H](O[C@H]3C[C@@](C)(O)[C@@H](O)[C@H](C)O3)[C@H](N(C)C)[C@H]2O)[C@@H](CC=O)C[C@@H](C)C(=O)/C=C/C(C)=C/[C@@H]1CO[C@@H]1O[C@H](C)[C@@H](O)[C@@H](OC)[C@H]1OC
- PER2::LUC luminescence (time after treatment 24 h): 0.95 and 1.18
- PER2::LUC luminescence (time after treatment 30 h): 1.17 and 1.33

Structure (SMILES): C[C@]12C[C@H](O)[C@H]3[C@@H](CCC4=CC(=O)CC[C@@]43C)[C@@H]1CC[C@@H]2C(=O)CO
- PER2::LUC luminescence (time after treatment 24 h): 1.1
- PER2::LUC luminescence (time after treatment 30 h): 0.939

Structure (SMILES): Cc1ccc(NC(=O)c2cccc(N(C)C)c2)cc1NC(=O)c1ccc(O)cc1
- PER2::LUC luminescence (time after treatment 24 h): 1.1
- PER2::LUC luminescence (time after treatment 30 h): 1.56

Structure (SMILES): O=C1NCCc2[nH]c(-c3ccncc3)cc21
- PER2::LUC luminescence (time after treatment 24 h): 0.478
- PER2::LUC luminescence (time after treatment 30 h): 0.615

Structure (SMILES): COC(=O)C1=C(C)NC(C)=C(C(=O)OC2CCCN(Cc3ccccc3)C2)C1c1cccc([N+](=O)[O-])c1 (stereo unspecified)
- PER2::LUC luminescence (time after treatment 24 h): 1.14
- PER2::LUC luminescence (time after treatment 30 h): 1.13

Structure (SMILES): COC(=O)CC1C(C)(C)C(OC(C)=O)[C@@H]2[C@@H](OC(C)=O)[C@]34O[C@@]2(O)[C@]1(C)C3CC[C@]1(C)C4=CC(=O)O[C@H]1c1ccoc1 (stereo partly specified)
- PER2::LUC luminescence (time after treatment 24 h): 0.924
- PER2::LUC luminescence (time after treatment 30 h): 0.919

Structure (SMILES): CCCCOc1ccc(CC/C=C2\SC(=O)N(CCN)C2=O)cc1
- PER2::LUC luminescence (time after treatment 24 h): 0.952
- PER2::LUC luminescence (time after treatment 30 h): 1.05

Structure (SMILES): CCNC(=O)CCC/C=C\C[C@@H]1[C@@H](/C=C/[C@@H](O)CCc2ccccc2)[C@H](O)C[C@@H]1O
- PER2::LUC luminescence (time after treatment 24 h): 0.997
- PER2::LUC luminescence (time after treatment 30 h): 1.05

Structure (SMILES): c1ccc2c3c([nH]c2c1)[C@H]1[C@@H]2CC[C@@H]([C@@H]4CCCN[C@@H]42)N1CC3
- PER2::LUC luminescence (time after treatment 24 h): 1.23
- PER2::LUC luminescence (time after treatment 30 h): 1

Structure (SMILES): O=c1sn(-c2cccc3ccccc23)c(=O)n1Cc1ccccc1
- PER2::LUC luminescence (time after treatment 24 h): 1.11
- PER2::LUC luminescence (time after treatment 30 h): 1.13

Structure (SMILES): Nc1c2c(nc3ccccc13)CCCC2
- PER2::LUC luminescence (time after treatment 24 h): 0.921 and 0.49
- PER2::LUC luminescence (time after treatment 30 h): 0.916 and 0.915

Structure (SMILES): CCCCC(CC)COC(=O)C(C#N)=C(c1ccccc1)c1ccccc1 (stereo unspecified)
- PER2::LUC luminescence (time after treatment 24 h): 1.01 and 1.15
- PER2::LUC luminescence (time after treatment 30 h): 1.08 and 1.14

Structure (SMILES): NC[C@H]1CC[C@H](C(=O)Oc2ccc(CCC(=O)O)cc2)CC1
- PER2::LUC luminescence (time after treatment 24 h): 0.828
- PER2::LUC luminescence (time after treatment 30 h): 0.901

Structure (SMILES): Cc1noc(-c2ccc(-c3ccc(CC(=O)O)cc3)cc2)c1NC(=O)O[C@H](C)c1ccccc1
- PER2::LUC luminescence (time after treatment 24 h): 1.09
- PER2::LUC luminescence (time after treatment 30 h): 1.1

Structure (SMILES): O=c1cc(-c2ccccc2)oc2cc(O)cc(O)c12
- PER2::LUC luminescence (time after treatment 24 h): 1.55 and 1.53
- PER2::LUC luminescence (time after treatment 30 h): 2.06 and 1.73

Structure (SMILES): O=C(O)[C@@H]1CSCN1
- PER2::LUC luminescence (time after treatment 24 h): 1.09
- PER2::LUC luminescence (time after treatment 30 h): 0.907

Structure (SMILES): C=C[C@@]1(C)CC(=O)[C@]2(O)[C@@]3(C)[C@@H](O)CCC(C)(C)[C@@H]3[C@H](O)[C@H](OC(C)=O)[C@@]2(C)O1
- PER2::LUC luminescence (time after treatment 24 h): 0.796 and 0.475
- PER2::LUC luminescence (time after treatment 30 h): 0.695 and 0.73

Structure (SMILES): CN(Cc1cnc2nc(N)nc(N)c2n1)c1ccc(C(=O)NC(CCC(=O)O)C(=O)O)cc1 (racemic)
- PER2::LUC luminescence (time after treatment 24 h): 0.976
- PER2::LUC luminescence (time after treatment 30 h): 0.744

Structure (SMILES): O=C(CCCCCN1C(=O)c2cccc3cccc(c23)C1=O)NO
- PER2::LUC luminescence (time after treatment 24 h): 0.328
- PER2::LUC luminescence (time after treatment 30 h): 0.286

Structure (SMILES): Cc1cc(OCCCS(C)(=O)=O)cc(C)c1-c1cccc(COc2ccc3c(c2)OC[C@H]3CC(=O)O)c1
- PER2::LUC luminescence (time after treatment 24 h): 1.26
- PER2::LUC luminescence (time after treatment 30 h): 1.21

Structure (SMILES): CCN(CC)C(=S)SSC(=S)N(CC)CC
- PER2::LUC luminescence (time after treatment 24 h): 0.533
- PER2::LUC luminescence (time after treatment 30 h): 0.829

Structure (SMILES): C/C(=C(\CCOP(=O)(O)O)SC(=O)c1ccccc1)N(C=O)Cc1cnc(C)nc1N
- PER2::LUC luminescence (time after treatment 24 h): 0.956
- PER2::LUC luminescence (time after treatment 30 h): 0.785

Structure (SMILES): Nc1ccc2cn[nH]c2c1
- PER2::LUC luminescence (time after treatment 24 h): 1
- PER2::LUC luminescence (time after treatment 30 h): 1
